The values below come from PubChem BioAssay AID1240 (Sanford-Burnham Center for Chemical Genomics, 2008).

SMILES strings stand for the structures. Among all 50,000 compounds or so, about 800 (1.6%) showed an effect of 50% or more. Some of the results follow.

In the experiment the target is Bcl-2-like protein 10 (Homo sapiens) (UniProt Q9HD36). Nature of the experiment: Phenotype converters, Bcl-B/TR3 peptide binding displacement, primary biochemical FP (AID 1240).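 Also: 0% = Bcl-B with tracer peptide and DMSO and 100% = tracer peptide lacking Bcl-B.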 The settings on record: GST-Bcl-B / FITC-TR3 peptide fluorescence polarization; stronger effect = higher value; compound at 3.75 mg/L.
Sequence of UniProt Q9HD36 (Q9HD36 whole entry, looked up): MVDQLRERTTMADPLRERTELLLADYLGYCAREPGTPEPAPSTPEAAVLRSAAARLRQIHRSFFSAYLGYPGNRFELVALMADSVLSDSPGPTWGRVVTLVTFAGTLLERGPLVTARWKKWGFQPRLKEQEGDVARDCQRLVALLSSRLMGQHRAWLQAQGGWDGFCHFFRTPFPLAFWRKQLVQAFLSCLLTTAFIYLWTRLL
For `O=C(CC(c1ccccc1)c1ccccc1)NCC1OCCc2ccccc21` (stereo not drawn), the displacement is -5.8%.

`Cc1cc(=O)oc2cc(OCc3cccc(Cl)c3)c(Cl)cc12`: the displacement is -2.5%.

`COc1ccc(C[n+]2cccc(C(=O)Nc3c(C)cccc3C)c2)cc1OC`: the displacement was 1.1%.

Take `COc1ccc(C2=CSC3=NCCN23)cc1F`: the displacement came out at 2.6%.

With `CS(=O)(=O)N(CC(=O)NCCSc1ccc(Cl)cc1)c1ccc(Cl)cc1`, the displacement turned out to be 12.9%.

With `O=C(CCc1ccccc1)Nc1ccccc1-c1ccccc1`, the displacement was -6%.

As for `CCN(CC)CCCNC(=O)c1cc2nc(-c3ccc([N+](=O)[O-])cc3)cc(C(F)(F)F)n2n1`, the displacement is -4.7%.

On to `COc1cccc2c(Cl)c(CC=C(Cl)Cl)c(C)nc12`, for which the displacement was -4.2%.

`O=C(CC(c1ccccc1)c1ccccc1)Nc1nncs1`: the displacement was found to be 5.7%.

Turning to `COc1cccc(N2C(=O)C(=O)/C(=C(\O)c3ccccc3)C2c2ccccc2F)c1` (stereo not drawn), the displacement was found to be 11.1%.

For the molecule `Cc1cccc(NC(=O)C(=O)NCc2ccco2)c1C`, the displacement was 11%.

Regarding `COc1cc(C=O)ccc1Oc1ncnc2sc3c(c12)CCCC3`, the displacement is 4.7%.

For `Cc1cn(C2CC(O)C(CO)O2)c(=O)n(C)c1=O` (stereo not drawn), the displacement was -3%.

On to `COc1ccc(/C=C2\SC(=O)N(c3cccc(O)c3)C2=O)cc1`, for which the displacement came to 11.1%.

Regarding `O=C(c1ccc(Cl)cc1)N1CCN(c2cccc(Cl)c2)CC1`, the displacement was -5.5%.

Consider `O=C1NC(=O)N(c2ccc(Cl)cc2)C(=O)/C1=C/c1ccc(N2CCOCC2)o1`, for which the displacement is -126%.

With `COc1cccc(/C=N/NC(=O)c2cccc(N3CCCC3=O)c2)c1`, the displacement is -3.5%.

On to `Cc1ccc(-c2ccccc2)n1-c1ccccc1C(=O)O`, for which the displacement came out at 86.8%.

As to `CCCOc1ccc(C(=O)Nc2sc(CC)cc2C(=O)OCC)cc1`, the displacement is -7.9%.

In the case of `COc1ccccc1C(=O)Nc1cc(C(F)(F)F)ccc1Br`, the displacement was -7.9%.

For the molecule `O=C(Cn1cc(Br)c(=O)n(CC(=O)Nc2ccccn2)c1=O)Nc1ccccn1`, the displacement worked out at 1.8%.

`Cc1ccc(OCC(=O)Nc2ccc(OC(F)(F)F)cc2)c(C)c1`: the displacement is -4.5%.

In the case of `Cc1ccc(NS(=O)(=O)c2ccc(N3C(=O)CCC3=O)cc2)cc1`, the displacement amounted to 11.8%.

For the molecule `O=C1CC(N2CCN(c3ccccc3)CC2)C(=O)N1c1ccc(I)cc1` (stereo not drawn), the displacement is -0.8%.

On to `O=C(Nc1c(C(=O)N2CCN(Cc3ccccc3)CC2)cnn1-c1ccccc1)c1ccc(Br)cc1`, for which the displacement was -9.8%.

On to `O=[N+]([O-])c1ccc(-c2nc(Cc3c(F)cccc3Cl)no2)cc1`, for which the displacement was found to be 7.8%.

Regarding `COc1ccc(N(CC(=O)N/N=C(\C)c2ccc(OC)c(OC)c2)S(=O)(=O)c2ccccc2)cc1`, the displacement is 0.8%.

With `O=[N+]([O-])c1ccc(CNCC2OCCc3ccccc32)cc1` (stereo not drawn), the displacement stood at 5.1%.

In the case of `Clc1ccc(CSc2nsc(SCc3ccc(Cl)cc3)n2)cc1`, the displacement came to 0.4%.

Turning to `S=C(c1ccc(-c2ccc(Cl)cc2Cl)o1)N1CCN(c2ccccc2)CC1`, the displacement turned out to be 5.6%.

Take `CCOc1cc(/C=N/N=C2/NC(=O)CS2)ccc1OCc1ccc(F)cc1`: the displacement was -11.8%.

Regarding `N/C(=N\OC(=O)c1ccc(Br)cc1)c1cccc([N+](=O)[O-])c1`, the displacement is -8%.

On to `COc1cccc(C2Nc3ccc(C(=O)c4ccccc4)cc3NC3=C2C(=O)CCC3)c1` (stereo not drawn), for which the displacement was -5.2%.

For the molecule `Cc1ccccc1OCCOc1ccc(/C=c2\sc3nc4ccccc4n3c2=O)cc1`, the displacement came out at 3.3%.

On to `O=c1cc(C(F)(F)F)c2ccc(OCc3ccc(Cl)cc3)cc2o1`, for which the displacement is -5.2%.

For the molecule `COc1ccc(C(=O)Nc2c(C)cc(C)cc2C)cc1[N+](=O)[O-]`, the displacement was found to be 6.3%.

On to `CC1(C)CC(=O)C(C2(O)C(=O)Nc3ccccc32)CO1` (stereo not drawn), for which the displacement turned out to be 3.9%.

For the molecule `CCN(CC)C(NC(=O)C(C)(C)C)C(Cl)(Cl)Cl` (stereo not drawn), the displacement is 7.6%.

For the molecule `O=C(CSCC(=O)c1ccc([N+](=O)[O-])cc1)Nc1ccc2ccccc2c1`, the displacement is 15.1%.

On to `O=C1N/C(=N/S(=O)(=O)c2ccccc2)S/C1=C\c1cccnc1`, for which the displacement was determined as 8.3%.

`COc1ccc(OC)c(N(CC(=O)N(Cc2ccccc2)Cc2ccccc2)S(C)(=O)=O)c1`: the displacement worked out at 10%.

Turning to `O=C(O)CCC(=O)Nc1cc(NC(=O)CCC(=O)O)cc(C(=O)O)c1`, the displacement is 2%.

As for `Cc1ccc(S(=O)(=O)N2CCN(C3CCCCCC3)CC2)cc1`, the displacement worked out at 10.9%.

For the molecule `COC(=O)CSc1nc(NC(C)=O)nc(C)c1Br`, the displacement is 4.5%.

Turning to `Cc1cc(C)c(S(=O)(=O)NC(=O)C23CC4CC(CC(C4)C2)C3)c(C)c1`, the displacement turned out to be 1.7%.

For `Cc1c(-c2nc(-c3ccccn3)no2)cccc1[N+](=O)[O-]`, the displacement worked out at 1.2%.

With `CCN(CC)c1ccc(/C=N/Nc2nncc(-c3ccccc3)n2)cc1`, the displacement is 2.5%.

In the case of `COc1ccccc1NC(=O)c1c(NC(=O)c2cccc(C)c2)sc2c1CCC2`, the displacement stood at 13.4%.

In the case of `CN1C2C=C(N(CCc3c[nH]c4ccccc34)C(=O)c3ccc(Cl)cc3)CC1CC2` (stereo not drawn), the displacement was -8.7%.

As to `O=C1NC(=O)N(c2ccc(Cl)cc2)C(=O)/C1=C\c1ccc(-c2ccc([N+](=O)[O-])cc2)o1`, the displacement was 105%.

Consider `CC(=O)c1ccc(NC(=O)c2ccccc2C)cc1`, for which the displacement was 18.9%.

In the case of `CCSc1nnc(NC(=O)c2c(C)c(-c3ccc(C)cc3)nc3ccccc23)s1`, the displacement was -3.3%.

Consider `COc1cc(/C=C2\C(=O)NN(c3ccccc3)C2=O)cc([N+](=O)[O-])c1O`, for which the displacement was -0.6%.

Turning to `CCOC(=O)C(=CNCCC(=O)O)C(=O)OCC`, the displacement was determined as 14.6%.

For the molecule `CCN(CC)c1ccc(/C=N/NC(=O)CN(c2ccc(OC)cc2)S(=O)(=O)c2ccccc2)cc1`, the displacement was 7.1%.

On to `CCOc1ccc(C(=O)Nc2ccccc2OC)cc1Br`, for which the displacement stood at 2.4%.

As for `O=c1c(O)c(-c2ccc3c(c2)OCO3)oc2ccccc12`, the displacement was -8.7%.

As for `NC(=O)c1c(NC(=O)c2cccc(Cl)c2)sc2c1CCCC2`, the displacement was -4.7%.

`CCC(=NNC(=O)Nc1c(C)cccc1C)c1ccc(O)cc1`: the displacement was -9.7%.

For the molecule `CC1CCC(N2CCN(S(=O)(=O)c3ccc(Cl)cc3)CC2)CC1` (stereo not drawn), the displacement was -10.5%.

As for `CCOC(=O)C1=C(C)N=c2s/c(=C\c3cc([N+](=O)[O-])cc(Br)c3O)c(=O)n2C1c1cccs1` (stereo not drawn), the displacement is -6.4%.

As for `Cc1cc(C)cc(OCC(=O)NCc2cccnc2)c1`, the displacement came out at 1.6%.

In the case of `CCN(CC)CCCCOc1c(OC)cccc1OC`, the displacement was -10.1%.

In the case of `CCOc1ccc2ccc(OCC)c(/C=C3\C(=O)NC(=O)N(c4ccc5c(c4)OCO5)C3=O)c2c1`, the displacement amounted to 17.5%.

Regarding `O=C(CC1SC(=Nc2ccccc2)N(c2ccccc2)C1=O)NCc1ccccc1` (stereo not drawn), the displacement was -10.3%.

Regarding `CSc1ccc(/C=C(\NC(=O)c2ccc(C)cc2)C(=O)Nc2cccc(F)c2)cc1`, the displacement came out at 127%.

For the molecule `COc1ccc(NC(=O)c2ccc(CN3CCc4ccccc4C3)cc2)cc1OC`, the displacement was determined as 12.1%.

Turning to `Cc1cccc2sc(NC(=O)c3ccc(S(=O)(=O)N4CCCc5ccccc54)cc3)nc12`, the displacement stood at 7.4%.

Take `CCOc1ccc(C(=O)Nc2ccsc2C(=O)OC)cc1`: the displacement amounted to 4%.

Consider `COc1ccc(CNC(=O)C(N)=O)cc1`, for which the displacement was 8.7%.

Take `O=C1c2ccccc2C(=O)N1CN1CCN(Cc2ccccc2)CC1`: the displacement is 14.4%.

Regarding `Cc1ccc(S(=O)(=O)N(Cc2ccccc2)c2ccccc2C(=O)NCc2ccccc2)cc1`, the displacement stood at 10.7%.

Regarding `O=C(NC(C(=O)NCc1ccccc1)C12CC3CC(CC(C3)C1)C2)c1ccc(F)cc1` (stereo not drawn), the displacement was -7.2%.

Regarding `Cc1cccc(C)c1OCC(=O)Nc1sc2c(c1C#N)CCCC2`, the displacement was -0.3%.

Turning to `COc1cc(C2C3=C(CCCC3=O)OC3=C2C(=O)CCC3)cc(OC)c1OC`, the displacement is -1.5%.

Turning to `O=c1oc2cc(OCc3ccc(Cl)cc3Cl)ccc2c2c1CCC2`, the displacement turned out to be 9.8%.

Regarding `CC(=O)Nc1cc(C(=O)O)cc(N)c1Cl`, the displacement worked out at 14.3%.

Take `Cc1cc(C)nc(NS(=O)(=O)c2ccc(NC(=O)c3ccco3)cc2)n1`: the displacement is -4.7%.

For the molecule `CC12CNCC(C)(CN(Cc3ccc(Br)cc3)C1)C2`, the displacement is -3.4%.

On to `Cc1c(C#N)sc2nc(-c3ccccc3)nc(/N=C/N(C)C)c12`, for which the displacement was -6.7%.

`CC(C)(C)c1nc2sc3c(c2c(=O)[nH]1)CCCC3`: the displacement was -3.5%.

With `CCOC(=O)c1c(N)sc2c1CC(C(C)C)OC2` (stereo not drawn), the displacement is -16.3%.

Take `CC(C1CC1)N1C(=O)C2C(C1=O)C1C=CC2C12CC2` (stereo not drawn): the displacement is -4.1%.

In the case of `Oc1c(C=Nc2cccc3ccccc23)sc2ccccc12`, the displacement was -25.8%.

For `O=c1cnnc(N/N=C\c2c(Cl)cccc2Cl)[nH]1`, the displacement was -11.7%.

Take `CCOc1ccc(NC(=S)NC(=O)c2ccccc2)c([N+](=O)[O-])c1`: the displacement was 10.6%.

Regarding `COC(=O)C1=C(O)CSC1=Nc1ccccc1`, the displacement was -8.7%.

For `c1ccc2c(c1)nc1n2CCN1CCNC1CCCCC1`, the displacement was -6.8%.

For `CCOc1ccc(-c2c(C#N)c(N)n3c(nc4ccccc43)c2C#N)cc1OC`, the displacement is -8.9%.

For `O=c1c(Cc2ccccc2)c(O)nc2n1CCCS2`, the displacement turned out to be 2.3%.

Turning to `Cc1ccc(C23CC4CC(CC(C(=O)NC(C)C(=O)NC(C)(C)C)(C4)C2)C3)cc1` (stereo not drawn), the displacement was -13.8%.

As to `CCOc1cc(OCC)cc(C(=O)Nc2ccc(I)cc2Cl)c1`, the displacement was determined as 1.1%.

Regarding `CCC1CCc2c(sc(NC(=O)c3ccccc3[N+](=O)[O-])c2C(=O)OC)C1` (stereo not drawn), the displacement is -7.8%.

With `COc1ccc(C2(C#N)CCOCC2)cc1OC`, the displacement is -6%.

`O=C(CSc1nc2ccccc2s1)OCC(=O)c1ccccc1`: the displacement was -5.2%.

In the case of `O=[N+]([O-])c1ccccc1S(=O)(=O)Nc1ccc(S(=O)(=O)N2CCCCC2)cc1`, the displacement came to 0.7%.

For the molecule `Cc1ccc(S(=O)(=O)n2nnc3ccccc32)c(C)c1`, the displacement was -4.4%.

As to `O=C(/C=C/c1nc2ccccc2[nH]1)c1c(-c2ccccc2)c2cc(Cl)ccc2[nH]c1=O`, the displacement was -10.7%.

Turning to `COc1ccc2c(c1)C(=O)N(c1ccc(C)cc1C)C(=O)/C2=C/N1CCOCC1`, the displacement was 14.7%.

For `CCOc1cc(/C=C2/SC(=S)N(CC)C2=O)ccc1OCc1ccccc1Cl`, the displacement came to 5.1%.

For the molecule `COc1ccc(OC)c(NC(=O)CN(c2ccc(Cl)cc2)S(C)(=O)=O)c1`, the displacement was -2.5%.

With `O=C(/C=C/c1ccccc1)NC(=S)Nc1ccc(I)cc1`, the displacement worked out at 11.6%.

With `O=C1c2ccccc2C(=O)N1c1ccc2nc(Sc3nc4ccc([N+](=O)[O-])cc4s3)sc2c1`, the displacement was -9.9%.

As to `O=C(Nc1ccc(Cl)cc1Cl)c1ccc(Cl)cc1Cl`, the displacement was -1.6%.

As to `NC(=O)c1ccccc1NC(=O)c1ccncc1`, the displacement was -5.7%.

Regarding `O=C(/C=C\c1ccccc1)Nc1ccc(Cl)c(-c2nc3ccccc3o2)c1`, the displacement stood at 3%.

Consider `CSc1ccc(C2C(C(=O)OCCOc3ccccc3)=C(C)NC3=C2C(=O)CCC3)cc1` (stereo not drawn), for which the displacement was -7.1%.

With `COc1ccccc1C(=O)Nc1nc2ccccc2n1CCOc1ccccc1`, the displacement was -23.3%.
